The source of these data is patent publication US10435371B2, “Multifunctional aminoquinoline therapeutic agent” (LOHOCLA RESEARCH CORPORATION, priority 2014, dated 2019).

Bounds are passed on as bounds.

For orientation: Ki means the equilibrium dissociation constant of an inhibitor or competing ligand from its target.

One assay addresses T1, NOP (Homo sapiens, UniProt P41146).
T1 construct: expressed in transfected cells; host or cells: HEKT, transient
The following applies: PDSP historical reference value, [^3H]N/OFQ; cited from earlier work.

Assay [1] addresses BDZ site, GABA-A Receptor. Kind of assay: PDSP radioligand displacement, [^3H]Flunitrazepam. The arrangement: species or system rat. To be noted: read-out: Binding constant Ki, BDZ site, GABA-A Receptor. In general terms: Loss of bound radioactivity is the signal in a displacement assay; it reports binding, not function.
For assay [2], the target named is CaV1.2 (Voltage sensitive Ca** channel (L-type)) (Homo sapiens, UniProt Q13936). Kind of assay: PDSP radioligand binding. The following applies: Table 3, the 6th table r22c0; read-out: Ki, CaV1.2 (lack of affinity).
A further assay addresses EP2 (Prostaglandin Rs) (Homo sapiens, UniProt P43116). Description: PDSP radioligand binding. The following applies: Table 3, the 6th table r12c1; read-out: Ki, EP2 (lack of affinity).
The subject of assay [3] is rats treated with cisplatin. Description: Reversal of cisplatin-induced neuropathic pain (von Frey mechanical pain threshold). In kind it is in vivo, rat. To be noted: cisplatin i.p. 7 mg/kg total, day 14; 50 mg/kg oral; 1 and 2 hours; FIG. 6.
In assay [4] the test system is rats treated with Complete Freund's Adjuvant. Description: Reversal of CFA-induced neuropathic pain (von Frey mechanical pain threshold). In kind it is in vivo, rat. To be noted: 48 h after CFA; 50 mg/kg; 1 hour; DCUKA n=17, BCUKA n=6; FIG. 8.
The target in the next assay is 5-HT1B (Serotonin Rs) (Homo sapiens, UniProt P28222). Description: PDSP radioligand binding.
Another assay has as its target 5-HT2B (Serotonin Rs) (Homo sapiens, UniProt P41595). Description: PDSP radioligand binding.
The target of a further assay is T2, 5-HT3 (Serotonin Rs) (Homo sapiens, UniProt P46098).
T2 sequence (P46098 24-478): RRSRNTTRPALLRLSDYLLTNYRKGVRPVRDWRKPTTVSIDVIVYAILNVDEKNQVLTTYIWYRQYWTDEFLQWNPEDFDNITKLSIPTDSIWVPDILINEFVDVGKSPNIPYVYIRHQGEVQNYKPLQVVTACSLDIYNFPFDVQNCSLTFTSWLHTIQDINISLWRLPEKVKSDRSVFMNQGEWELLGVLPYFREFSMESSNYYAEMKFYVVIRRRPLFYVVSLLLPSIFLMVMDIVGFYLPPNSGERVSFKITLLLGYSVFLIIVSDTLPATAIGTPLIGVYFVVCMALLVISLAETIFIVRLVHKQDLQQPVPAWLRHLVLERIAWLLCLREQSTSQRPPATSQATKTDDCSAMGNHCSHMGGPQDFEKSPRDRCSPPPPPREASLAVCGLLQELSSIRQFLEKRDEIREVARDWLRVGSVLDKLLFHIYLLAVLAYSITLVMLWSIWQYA
Kind of assay: PDSP radioligand binding.

The target of assay [5] is β1 (Adrenergic Rs (beta adrenergic)) (Homo sapiens, UniProt P08588). Description: PDSP radioligand binding.
Assay [6] addresses β2 (Adrenergic Rs (beta adrenergic)) (Homo sapiens, UniProt P07550). Kind of assay: PDSP radioligand binding.
The target in a further assay is D1 (Dopamine Rs) (Homo sapiens, UniProt P21728). Description: PDSP radioligand binding.
The next assay deals with D2 (Dopamine Rs) (Homo sapiens, UniProt P14416). Description: PDSP radioligand binding.
Assay [7] has as its target T3, M2 (Muscarinic Cholinergic Rs) (Homo sapiens, UniProt P08172).
T3 sequence (P08172 1-466): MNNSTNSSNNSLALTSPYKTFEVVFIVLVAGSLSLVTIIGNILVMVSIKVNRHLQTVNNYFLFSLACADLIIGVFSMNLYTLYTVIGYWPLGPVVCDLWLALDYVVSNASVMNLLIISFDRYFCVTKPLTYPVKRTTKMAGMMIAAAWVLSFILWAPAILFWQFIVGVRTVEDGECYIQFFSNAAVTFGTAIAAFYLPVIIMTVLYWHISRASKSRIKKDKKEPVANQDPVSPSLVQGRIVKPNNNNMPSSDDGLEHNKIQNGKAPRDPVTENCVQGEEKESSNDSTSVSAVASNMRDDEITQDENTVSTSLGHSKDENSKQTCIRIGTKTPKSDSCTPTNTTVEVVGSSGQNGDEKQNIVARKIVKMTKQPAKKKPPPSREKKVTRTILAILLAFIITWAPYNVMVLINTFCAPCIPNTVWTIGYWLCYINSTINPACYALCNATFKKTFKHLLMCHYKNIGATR
Kind of assay: PDSP radioligand binding.

Assay [8] deals with mGluR5 (Metabotropic Glutamate Rs) (Homo sapiens, UniProt P41594). Description: PDSP radioligand binding.
In a further assay the target is Serotonin Transporter (Homo sapiens, UniProt P31645). Description: PDSP radioligand binding.
A further assay addresses V1A (Vasopressin) (Homo sapiens, UniProt P37288). Description: PDSP radioligand binding.
Assay [9] deals with GABA site, GABA-A Receptor. To be noted: radioligand, PDSP website; read-out: Kd for [^3H] Compound binding, GABAA (rat brain); cited from earlier work.
The target in assay [10] is BDZ site, GABA-A Receptor. To be noted: read-out: Kd for [^3H] Compound binding, GABAA/BZP (rat brain); radioligand, PDSP website; cited from earlier work.

Chain of β1 (Adrenergic Rs (beta adrenergic)) (P08588 whole entry): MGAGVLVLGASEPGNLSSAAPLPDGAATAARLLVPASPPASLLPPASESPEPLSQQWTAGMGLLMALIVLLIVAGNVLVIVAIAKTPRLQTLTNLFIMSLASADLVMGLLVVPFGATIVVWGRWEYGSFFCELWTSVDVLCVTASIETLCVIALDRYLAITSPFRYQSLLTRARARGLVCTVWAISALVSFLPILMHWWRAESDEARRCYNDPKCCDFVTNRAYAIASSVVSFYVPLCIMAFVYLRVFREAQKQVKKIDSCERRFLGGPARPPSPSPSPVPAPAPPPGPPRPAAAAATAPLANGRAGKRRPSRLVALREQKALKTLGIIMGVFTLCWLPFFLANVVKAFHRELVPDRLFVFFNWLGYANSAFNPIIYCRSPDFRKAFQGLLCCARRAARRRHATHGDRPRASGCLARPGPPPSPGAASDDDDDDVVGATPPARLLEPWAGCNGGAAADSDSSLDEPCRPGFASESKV
Chain of Serotonin Transporter (P31645 whole entry): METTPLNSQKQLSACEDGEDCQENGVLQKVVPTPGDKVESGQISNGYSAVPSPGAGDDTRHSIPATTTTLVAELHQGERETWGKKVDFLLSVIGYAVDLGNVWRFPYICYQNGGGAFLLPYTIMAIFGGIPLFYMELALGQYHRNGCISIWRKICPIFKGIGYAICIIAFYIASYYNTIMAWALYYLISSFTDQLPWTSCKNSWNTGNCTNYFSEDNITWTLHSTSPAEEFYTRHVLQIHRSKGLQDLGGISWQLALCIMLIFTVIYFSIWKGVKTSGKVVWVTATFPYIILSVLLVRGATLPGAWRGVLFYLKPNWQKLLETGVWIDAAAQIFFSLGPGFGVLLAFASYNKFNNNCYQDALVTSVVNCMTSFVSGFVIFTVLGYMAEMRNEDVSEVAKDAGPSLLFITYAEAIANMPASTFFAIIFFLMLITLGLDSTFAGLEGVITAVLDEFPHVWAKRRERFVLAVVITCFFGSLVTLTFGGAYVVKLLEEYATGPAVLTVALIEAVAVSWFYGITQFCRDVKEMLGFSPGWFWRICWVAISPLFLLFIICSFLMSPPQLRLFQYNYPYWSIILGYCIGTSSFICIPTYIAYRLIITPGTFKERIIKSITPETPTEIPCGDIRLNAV
Chain of CaV1.2 (Voltage sensitive Ca** channel (L-type)) (Q13936 whole entry): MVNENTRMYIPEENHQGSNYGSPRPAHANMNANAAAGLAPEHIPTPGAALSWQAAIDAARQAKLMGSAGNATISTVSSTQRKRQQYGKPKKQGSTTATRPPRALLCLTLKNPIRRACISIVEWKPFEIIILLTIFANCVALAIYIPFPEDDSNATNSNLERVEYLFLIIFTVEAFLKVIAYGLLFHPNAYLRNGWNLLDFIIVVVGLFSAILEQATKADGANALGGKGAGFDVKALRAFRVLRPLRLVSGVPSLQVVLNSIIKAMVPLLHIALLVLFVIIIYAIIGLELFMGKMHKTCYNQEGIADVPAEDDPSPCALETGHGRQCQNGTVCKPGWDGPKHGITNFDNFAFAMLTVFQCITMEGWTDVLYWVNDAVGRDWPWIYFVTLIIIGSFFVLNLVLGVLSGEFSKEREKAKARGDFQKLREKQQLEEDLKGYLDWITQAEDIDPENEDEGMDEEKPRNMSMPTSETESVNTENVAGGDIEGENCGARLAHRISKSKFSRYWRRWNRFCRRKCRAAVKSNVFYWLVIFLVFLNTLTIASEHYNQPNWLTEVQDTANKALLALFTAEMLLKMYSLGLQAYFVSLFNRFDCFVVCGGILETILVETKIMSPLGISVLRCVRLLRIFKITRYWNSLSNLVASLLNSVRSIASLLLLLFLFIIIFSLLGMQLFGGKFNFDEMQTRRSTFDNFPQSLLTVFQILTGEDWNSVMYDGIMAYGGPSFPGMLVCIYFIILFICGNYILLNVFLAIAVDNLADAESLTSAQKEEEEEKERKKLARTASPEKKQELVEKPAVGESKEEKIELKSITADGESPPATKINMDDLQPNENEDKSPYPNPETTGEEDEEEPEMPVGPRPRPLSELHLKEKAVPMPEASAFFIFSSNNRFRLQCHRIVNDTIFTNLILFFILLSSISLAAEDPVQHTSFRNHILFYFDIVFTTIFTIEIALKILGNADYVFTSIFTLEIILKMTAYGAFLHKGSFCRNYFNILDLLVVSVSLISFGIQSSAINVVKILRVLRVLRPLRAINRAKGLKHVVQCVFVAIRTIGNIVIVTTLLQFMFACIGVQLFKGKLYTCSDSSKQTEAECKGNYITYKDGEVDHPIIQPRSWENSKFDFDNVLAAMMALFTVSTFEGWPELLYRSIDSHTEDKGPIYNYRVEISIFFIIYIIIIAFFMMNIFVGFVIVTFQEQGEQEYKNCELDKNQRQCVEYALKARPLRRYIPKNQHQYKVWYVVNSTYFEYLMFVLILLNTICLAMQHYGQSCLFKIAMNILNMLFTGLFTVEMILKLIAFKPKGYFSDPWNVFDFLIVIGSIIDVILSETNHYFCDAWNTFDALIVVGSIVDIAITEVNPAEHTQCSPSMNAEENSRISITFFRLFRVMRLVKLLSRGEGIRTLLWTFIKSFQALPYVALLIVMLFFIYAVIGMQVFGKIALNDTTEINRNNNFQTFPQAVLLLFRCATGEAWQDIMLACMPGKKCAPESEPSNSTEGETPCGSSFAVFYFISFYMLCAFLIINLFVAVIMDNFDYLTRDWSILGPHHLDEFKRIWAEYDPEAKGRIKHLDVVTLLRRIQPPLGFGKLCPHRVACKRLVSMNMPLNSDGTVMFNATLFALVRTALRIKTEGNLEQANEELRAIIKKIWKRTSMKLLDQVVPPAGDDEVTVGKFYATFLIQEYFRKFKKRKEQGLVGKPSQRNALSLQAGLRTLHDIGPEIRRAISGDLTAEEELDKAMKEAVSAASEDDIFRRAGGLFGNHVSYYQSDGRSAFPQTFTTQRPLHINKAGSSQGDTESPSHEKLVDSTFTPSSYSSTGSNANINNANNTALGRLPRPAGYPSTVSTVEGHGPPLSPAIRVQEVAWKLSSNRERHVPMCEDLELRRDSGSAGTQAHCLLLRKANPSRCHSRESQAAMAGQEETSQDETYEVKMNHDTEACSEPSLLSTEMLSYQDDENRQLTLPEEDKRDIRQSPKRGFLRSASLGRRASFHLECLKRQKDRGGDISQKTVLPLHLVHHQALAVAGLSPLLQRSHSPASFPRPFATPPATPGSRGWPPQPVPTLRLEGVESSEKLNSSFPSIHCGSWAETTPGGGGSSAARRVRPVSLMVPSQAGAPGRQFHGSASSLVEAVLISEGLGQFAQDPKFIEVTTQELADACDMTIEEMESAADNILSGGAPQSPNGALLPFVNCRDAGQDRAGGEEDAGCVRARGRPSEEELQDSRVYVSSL
Chain of D1 (Dopamine Rs) (P21728 whole entry): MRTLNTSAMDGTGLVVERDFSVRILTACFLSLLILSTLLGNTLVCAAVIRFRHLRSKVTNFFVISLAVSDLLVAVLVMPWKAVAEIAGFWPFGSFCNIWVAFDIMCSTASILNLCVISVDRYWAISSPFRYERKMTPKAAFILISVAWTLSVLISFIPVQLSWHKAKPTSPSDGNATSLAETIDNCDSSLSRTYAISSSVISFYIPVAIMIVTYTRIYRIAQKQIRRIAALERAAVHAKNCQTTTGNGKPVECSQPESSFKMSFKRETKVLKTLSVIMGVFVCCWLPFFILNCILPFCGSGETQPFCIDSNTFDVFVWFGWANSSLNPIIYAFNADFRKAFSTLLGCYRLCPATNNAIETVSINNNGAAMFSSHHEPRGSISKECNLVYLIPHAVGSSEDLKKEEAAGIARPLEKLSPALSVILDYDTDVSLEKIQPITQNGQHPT
Chain of 5-HT1B (Serotonin Rs) (P28222 whole entry): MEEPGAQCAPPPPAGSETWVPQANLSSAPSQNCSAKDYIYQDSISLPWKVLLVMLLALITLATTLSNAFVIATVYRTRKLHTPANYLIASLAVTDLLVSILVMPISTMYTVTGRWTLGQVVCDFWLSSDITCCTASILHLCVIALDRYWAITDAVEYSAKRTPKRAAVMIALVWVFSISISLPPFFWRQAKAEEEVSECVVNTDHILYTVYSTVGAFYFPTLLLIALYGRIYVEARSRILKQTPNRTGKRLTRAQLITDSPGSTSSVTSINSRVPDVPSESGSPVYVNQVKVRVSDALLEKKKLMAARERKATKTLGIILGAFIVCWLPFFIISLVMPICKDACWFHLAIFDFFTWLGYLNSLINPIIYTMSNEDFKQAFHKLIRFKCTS
Chain of 5-HT2B (Serotonin Rs) (P41595 whole entry): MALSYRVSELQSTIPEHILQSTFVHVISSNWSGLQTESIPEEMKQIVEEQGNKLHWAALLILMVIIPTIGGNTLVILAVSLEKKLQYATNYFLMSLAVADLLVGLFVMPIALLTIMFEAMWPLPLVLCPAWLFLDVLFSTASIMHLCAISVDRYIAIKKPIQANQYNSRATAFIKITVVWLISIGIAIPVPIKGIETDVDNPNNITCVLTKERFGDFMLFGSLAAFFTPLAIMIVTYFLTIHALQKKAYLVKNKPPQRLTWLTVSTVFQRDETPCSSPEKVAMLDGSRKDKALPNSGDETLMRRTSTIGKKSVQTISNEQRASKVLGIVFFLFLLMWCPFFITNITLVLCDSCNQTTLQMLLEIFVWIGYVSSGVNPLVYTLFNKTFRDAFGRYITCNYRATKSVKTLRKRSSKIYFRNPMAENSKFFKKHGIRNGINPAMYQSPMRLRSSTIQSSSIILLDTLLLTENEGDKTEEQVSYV
Chain of β2 (Adrenergic Rs (beta adrenergic)) (P07550 whole entry): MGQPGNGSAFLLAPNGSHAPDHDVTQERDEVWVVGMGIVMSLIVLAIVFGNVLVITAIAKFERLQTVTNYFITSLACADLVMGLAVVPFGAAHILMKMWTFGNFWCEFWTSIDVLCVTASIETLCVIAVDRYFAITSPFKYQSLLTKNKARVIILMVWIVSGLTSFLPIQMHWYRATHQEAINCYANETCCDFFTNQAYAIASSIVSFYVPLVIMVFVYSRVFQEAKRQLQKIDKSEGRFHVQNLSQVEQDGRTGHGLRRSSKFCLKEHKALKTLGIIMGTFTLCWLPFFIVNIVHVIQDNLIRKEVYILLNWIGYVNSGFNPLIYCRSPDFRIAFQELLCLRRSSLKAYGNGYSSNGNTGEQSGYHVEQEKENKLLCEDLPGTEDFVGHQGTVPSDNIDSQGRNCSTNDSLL

Regarding `CC(C)[C@@H](CN1CC[C@@](C)(c2cccc(O)c2)[C@@H](C)C1)NC(=O)[C@H]1Cc2ccc(O)cc2CN1` [JDTiC], the Ki at NOP is 12.1 ± 1.47 nM.

With `CCCCN(CCCC)C(=O)Nc1cc(C(=O)O)nc2cc(Cl)cc(Cl)c12` [BCUKA, 5,7-dichloro-4-(3,3-dibutylureido)quinoline-2-carboxylic acid], the Ki in assay [1] was 630 ± 40 nM; in assay [2], over 10 µM; at EP2 (Prostaglandin Rs), over 10 µM; at 5-HT1B (Serotonin Rs) it was over 10 µM; at 5-HT2B (Serotonin Rs) it was over 10 µM; at 5-HT3 (Serotonin Rs) it was over 10 µM. Besides, the Ki (in assay [5]; in assay [6]; on D1 (Dopamine Rs); on D2 (Dopamine Rs); in [7]; in assay [8]) was over 10 µM each time. Further, the inhibitory constant (Ki) on Serotonin Transporter and at V1A (Vasopressin) was over 10 µM throughout. Further, the “Mechanical pain threshold, ratio to baseline” value in assay [3] is reported as “significantly reversed the drop in mechanical pain threshold”; in assay [4] it was “reversed the mechanical pain threshold to a level not significantly different from baseline”.

`NCc1cc(=O)[nH]o1` [[^3H]Muscimol]: the Kd in assay [9] is 5 nM.

On to `CN1C(=O)CN=C(c2ccccc2F)c2cc([N+](=O)[O-])ccc21` [[^3H]Flunitrazepam], for which the Kd in assay [10] is 0.5 nM.
